# Experimental data taken from the supplement of paper PMC8728848.
# The other results are listed elsewhere or left out.
# Tests used:
# Assay in all cases: glycan array binding signal (z-score within array); higher = stronger binding
# Details in all cases: glycan notation: IUPAC condensed, linker removed
# [1] = biological target: Man(a1-3)[Man(a1-6)]Man(a1-6)[Man(a1-2)Man(a1-3)]Man(b1-4)GlcNAc(b1-4)GlcNAc
# Method in brief: (§1)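 Negative Z-scores can be read as non-binding. The Z-score is calculated within each array and then averaged across arrays of one protein sequence at different concentrations or buffers and across linkers. Arrays, 3228 in all, were curated from the Consortium for Functional Glycomics database and kept only where the protein sequence was available.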
# [2] = biological target: Man(a1-3)[Man(a1-6)]Man(a1-6)[Man(a1-3)]Man
# Method in brief: as §1
# [3] = biological target: Man(a1-3)[Man(a1-6)]Man(a1-6)[Man(a1-3)]Man(b1-4)GlcNAc(b1-4)GlcNAc
# Method in brief: as §1
# [4] = biological target: Man(a1-3)[Man(a1-6)]Man(b1-4)GlcNAc(b1-4)GlcNAc
# Method in brief: as §1
# Man(a1-6)Man = biological target: Man(a1-6)Man
# Method in brief: as §1
# Man(b1-4)GlcNAc = biological target: Man(b1-4)GlcNAc
# Method in brief: as §1
# Neu5Ac(a2-3)Gal = biological target: Neu5Ac(a2-3)Gal
# Method in brief: as §1
# [5] = biological target: Neu5Ac(a2-3)Gal(b1-3)GalNAc
# Method in brief: as §1
# [6] = biological target: Neu5Ac(a2-3)Gal(b1-3)GalNAc(b1-3)Gal(a1-4)Gal(b1-4)Glc
# Method in brief: as §1
# [7] = biological target: Neu5Ac(a2-3)Gal(b1-3)GalNAc(b1-3)Gal(b1-4)GlcNAc
# Method in brief: as §1
# [8] = biological target: Neu5Ac(a2-3)Gal(b1-3)GalNAc(b1-4)[Neu5Ac(a2-3)]Gal(b1-4)Glc
# Method in brief: as §1
# [9] = biological target: Neu5Ac(a2-3)Gal(b1-3)GalNAc6S
# Method in brief: as §1
# [10] = biological target: Neu5Ac(a2-3)Gal(b1-3)GlcNAc
# Method in brief: as §1
# [11] = biological target: Neu5Ac(a2-3)Gal(b1-3)GlcNAc(b1-3)Gal(b1-3)GlcNAc
# Method in brief: as §1
# [12] = biological target: Neu5Ac(a2-3)Gal(b1-3)GlcNAc6S
# Method in brief: as §1
# [13] = biological target: Neu5Ac(a2-3)Gal(b1-3)[Fuc(a1-4)]GlcNAc
# Method in brief: as §1
# [14] = biological target: Neu5Ac(a2-3)Gal(b1-3)[Fuc(a1-4)]GlcNAc(b1-3)Gal(b1-4)[Fuc(a1-3)]GlcNAc
# Method in brief: as §1
# [15] = biological target: Neu5Ac(a2-3)Gal(b1-3)[Neu5Ac(a2-3)Gal(b1-4)]GlcNAc
# Method in brief: as §1
# [16] = biological target: Neu5Ac(a2-3)Gal(b1-3)[Neu5Ac(a2-6)]GalNAc
# Method in brief: as §1
# Neu5Ac(a2-3)Gal(b1-4)Glc = biological target: Neu5Ac(a2-3)Gal(b1-4)Glc
# Method in brief: as §1
# [17] = biological target: Neu5Ac(a2-3)Gal(b1-4)GlcNAc
# Method in brief: as §1
# [18] = biological target: Neu5Ac(a2-3)Gal(b1-4)GlcNAc(b1-2)Man(a1-3)[GlcNAc(b1-2)Man(b1-4)GlcNAc(b1-2)Man(a1-6)]Man(b1-4)GlcNAc(b1-4)GlcNAc
# Method in brief: as §1
# [19] = biological target: Neu5Ac(a2-3)Gal(b1-4)GlcNAc(b1-2)Man(a1-3)[Neu5Ac(a2-6)Gal(b1-4)GlcNAc(b1-2)Man(a1-6)]Man(b1-4)GlcNAc(b1-4)GlcNAc
# Method in brief: as §1
# [20] = biological target: Neu5Ac(a2-3)Gal(b1-4)GlcNAc(b1-3)Gal(b1-3)GlcNAc
# Method in brief: as §1
# [21] = biological target: Neu5Ac(a2-3)Gal(b1-4)GlcNAc(b1-3)Gal(b1-4)GlcNAc
# Method in brief: as §1
# [22] = biological target: Neu5Ac(a2-3)Gal(b1-4)GlcNAc(b1-3)Gal(b1-4)GlcNAc(b1-3)Gal(b1-4)GlcNAc
# Method in brief: as §1
# [23] = biological target: Neu5Ac(a2-3)Gal(b1-4)GlcNAc(b1-3)Gal(b1-4)[Fuc(a1-3)]GlcNAc
# Method in brief: as §1
# [24] = biological target: Neu5Ac(a2-3)Gal(b1-4)GlcNAc(b1-6)[Gal(b1-3)]GalNAc
# Method in brief: as §1
# [25] = biological target: Neu5Ac(a2-3)Gal(b1-4)GlcNAc(b1-6)[Neu5Ac(a2-3)Gal(b1-3)]GalNAc
# Method in brief: as §1
# [26] = biological target: Neu5Ac(a2-3)Gal(b1-4)GlcNAc6S
# Method in brief: as §1
# [27] = biological target: Neu5Ac(a2-3)Gal(b1-4)[Fuc(a1-3)]GlcNAc
# Method in brief: as §1
# [28] = biological target: Neu5Ac(a2-3)Gal(b1-4)[Fuc(a1-3)]GlcNAc(b1-3)Gal
# Method in brief: as §1
# [29] = biological target: Neu5Ac(a2-3)Gal(b1-4)[Fuc(a1-3)]GlcNAc(b1-3)Gal(b1-4)GlcNAc
# Method in brief: as §1
# [30] = biological target: Neu5Ac(a2-3)Gal(b1-4)[Fuc(a1-3)]GlcNAc(b1-3)Gal(b1-4)[Fuc(a1-3)]GlcNAc(b1-3)Gal(b1-4)[Fuc(a1-3)]GlcNAc
# Method in brief: as §1
# [31] = biological target: Neu5Ac(a2-3)Gal(b1-4)[Fuc(a1-3)]GlcNAc(b1-6)[Gal(b1-3)]GalNAc
# Method in brief: as §1
# [32] = biological target: Neu5Ac(a2-3)Gal(b1-4)[Fuc(a1-3)]GlcNAc6S
# Method in brief: as §1
# [33] = biological target: Neu5Ac(a2-3)Gal6S(b1-4)GlcNAc
# Method in brief: as §1
binder,measurement,setting,value
"SLR2P2A3 (Tachypleus tridentatus), TAL2_TACTR (protein) MEKGTPPTHDSDNWMGRAKKIGNGGWNQFQFLFFDPNGYLYAVSKDKLYKASPPQSDTDNWIARATEIGSGGWSGSKFLFFHPNGYLYAVHGQRLYKALPPVSNQD",glycan array binding signal (z-score),[1],0.109
same,glycan array binding signal (z-score),[2],0.265
same,glycan array binding signal (z-score),[3],-0.618
same,glycan array binding signal (z-score),[4],-0.255
same,glycan array binding signal (z-score),Man(a1-6)Man,-0.035
same,glycan array binding signal (z-score),Man(b1-4)GlcNAc,-0.196
same,glycan array binding signal (z-score),Neu5Ac(a2-3)Gal,-0.353
same,glycan array binding signal (z-score),[5],-0.196
same,glycan array binding signal (z-score),[6],-0.324
same,glycan array binding signal (z-score),[7],-0.576
same,glycan array binding signal (z-score),[8],-0.213
same,glycan array binding signal (z-score),[9],-0.653
same,glycan array binding signal (z-score),[10],0.037
same,glycan array binding signal (z-score),[11],-0.591
same,glycan array binding signal (z-score),[12],-0.354
same,glycan array binding signal (z-score),[13],-0.514
same,glycan array binding signal (z-score),[14],-0.27
same,glycan array binding signal (z-score),[15],-0.467
same,glycan array binding signal (z-score),[16],-0.3
same,glycan array binding signal (z-score),Neu5Ac(a2-3)Gal(b1-4)Glc,-0.109
same,glycan array binding signal (z-score),[17],-0.372
same,glycan array binding signal (z-score),[18],-0.371
same,glycan array binding signal (z-score),[19],-0.104
same,glycan array binding signal (z-score),[20],-0.517
same,glycan array binding signal (z-score),[21],-0.386
same,glycan array binding signal (z-score),[22],-0.48
same,glycan array binding signal (z-score),[23],-0.426
same,glycan array binding signal (z-score),[24],0.321
same,glycan array binding signal (z-score),[25],0.065
same,glycan array binding signal (z-score),[26],0.669
same,glycan array binding signal (z-score),[27],-0.063
same,glycan array binding signal (z-score),[28],-0.555
same,glycan array binding signal (z-score),[29],-0.473
same,glycan array binding signal (z-score),[30],-0.46
same,glycan array binding signal (z-score),[31],-0.593
same,glycan array binding signal (z-score),[32],0.206
same,glycan array binding signal (z-score),[33],-0.562
